Measured values: the supplement of paper PMC3334620
Over roughly 33,000 sequences, “E-score (-0.5 to 0.5)” has its median near -0.032; the highest 2% begin near 0.36. The list shows a part of the results.

The sequences below were run against T1, Sko1 (UniProt Q02100) (assay: PBM E-score (8-mer binding enrichment) (E-score (-0.5 to 0.5)); higher = stronger / more preferred TF binding; most listed sequences are background and not binding sites). Conditions: protein concentration: 200 nM; construct: GST-full length.
T1 sequence: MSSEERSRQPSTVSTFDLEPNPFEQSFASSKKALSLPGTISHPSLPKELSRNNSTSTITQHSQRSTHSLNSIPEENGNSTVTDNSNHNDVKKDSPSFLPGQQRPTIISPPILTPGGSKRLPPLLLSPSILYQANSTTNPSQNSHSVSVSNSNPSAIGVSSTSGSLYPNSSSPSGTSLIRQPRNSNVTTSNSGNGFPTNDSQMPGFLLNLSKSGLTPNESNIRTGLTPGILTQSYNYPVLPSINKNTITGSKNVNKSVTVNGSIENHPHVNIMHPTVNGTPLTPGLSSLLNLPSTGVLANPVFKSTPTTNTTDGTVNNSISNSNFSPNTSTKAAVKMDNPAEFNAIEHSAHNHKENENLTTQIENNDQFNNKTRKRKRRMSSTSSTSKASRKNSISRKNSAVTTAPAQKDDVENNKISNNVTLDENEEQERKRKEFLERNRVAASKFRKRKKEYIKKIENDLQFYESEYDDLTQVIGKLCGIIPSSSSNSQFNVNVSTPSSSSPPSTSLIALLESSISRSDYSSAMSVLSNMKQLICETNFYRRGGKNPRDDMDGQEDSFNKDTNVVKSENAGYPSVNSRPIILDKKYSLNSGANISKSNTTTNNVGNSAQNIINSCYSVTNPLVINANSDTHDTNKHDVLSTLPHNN
Method in brief: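 Yeast transcription factors, full-length or as DNA-binding domains, were expressed with a GST tag using PURExpress in vitro transcription/translation. At about 100-200 nM they were applied to universal all-10-mer Agilent arrays, double-stranded by primer extension on fresh or once-stripped slides. Fluorescent anti-GST detected bound protein, and masliner normalised the scans. E-scores for ungapped eight-base words, pooled with reverse complements, came from the Universal PBM Analysis Suite.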

Sequence | PBM E-score
CACTCAGG | -0.167
AACCCACC | -0.0866
GATACTTA | 0.0322
CCAATCGA | -0.0746
AATCGCTA | -0.037
CCTAAAGC | -0.106
TGAACTCA | 0.129
GCCCTGAA | -0.0589
ATCCATAC | 0.148
GGGAGTAC | -0.0581
ACCCAACG | -0.0412
GGGTAGAA | -0.152
ATGAAATA | 0.2
ATATGGAC | 0.0409
CCCATTCC | -0.392
CTTCAACC | 0.0923
GCAGGCCC | -0.343
AAGATTAG | 0.062
AAACTCCC | -0.0226
GATGTCCC | -0.24
ATTTTCGA | 0.215
GCCTTAGC | -0.113
GTGGTCTA | -0.124
CCTAACCC | -0.241
AACTAGAA | 0.0968

Sequence | PBM E-score
GTCAGGAC | 0.147
ACGATGCT | -0.118
ACACCGTC | -0.0414
AGCGCCCG | -0.093
CTAGTAGA | 0.00136
CACGGCCC | -0.0483
CTTGGGAA | -0.0531
AATAGAAC | 0.0147
GCGTTGAA | -0.00274
CAGTTGAC | 0.00329
CCGCGCCA | -0.0943
AACCGCGT | 0.148
CACGTTCG | -0.00664
CTAGGAGA | -0.147
ATACAAAC | 0.208
CACAGGTC | -0.262
ATAGGCCG | -0.228
GTACTTAA | 0.15
CCCCTAAG | -0.211
CGTTGCCC | -0.0966
GAATTGGA | 0.0218
CATGAACC | 0.032
CACGTAGC | 0.364
TGACTCCA | -0.0825
TTAATAAA | 0.286

Sequence | PBM E-score
GTAATGGA | 0.402
GACCATGC | 0.0552
AAGACTTC | -0.0853
CCGTCAGG | -0.0861
ACTCCTGG | -0.326
CCGATACG | 0.0786
GGCGCCGA | -0.217
AACGAACA | 0.0373
AGCCTGCC | -0.095
TCCAAAAA | 0.00908
CAACGTCA | 0.47
GAGACCGA | -0.114
AGTGACCG | -0.222
GCCTAGGC | -0.4
CCTGGCTC | -0.137
ACGTCTAG | 0.356
ACTCACGG | 0.0503
CCGACGAA | 0.144
ACCGTGGA | -0.265
CAGTAAGA | 0.0474
AGTGGTGC | -0.206
AGGTGAGC | -0.248
ACCCCCTG | -0.327
GCCTGACC | -0.328
GTCAACCA | 0.0809

Sequence | PBM E-score
ATGACGAC | 0.466
CGTCATTA | 0.487
AACCAACA | 0.0388
ATCATCCC | 0.0462
CGTTTATC | 0.237
ACTAAACA | 0.159
ATAGTGGG | -0.124
ACCACGCG | 0.107
CGCGTGGA | -0.187
CGTGGCAG | 0.0975
GTTAGGGA | -0.127
GCGAAAGC | -0.126
AGTACAGG | -0.0388
ATAATGTC | 0.0617
AGCATTTG | -0.0323
AAAGAAGG | -0.0804
CCGTAACA | 0.0942
CGGCTGGC | -0.282
ATGTAAGA | 0.25
ATTTGTCA | 0.217
ACACGACG | 0.251
ACTTCCAA | -0.0994
ATGCACAT | 0.155
CCGGGGAG | -0.11
ACCAGGGA | -0.172

Sequence | PBM E-score
AATCAAGT | -0.00666
ACTAGAAT | 0.111
AACTATGT | 0.157
CAAACCGC | -0.269
ACGCGCAA | 0.209
GTGACTCA | 0.0578
ACCACCTG | -0.175
GCAGTCAC | -0.0169
CGATGCCA | -0.138
CACTCATA | 0.14
AATTGTTG | 0.123
GATAAAGA | 0.114
ACAGATTG | -0.183
AAGGGCTC | -0.343
CAAAGTAA | -0.0412
ACTTCAAA | 0.052
ACCCTTCG | -0.0991
AATTTGGA | 0.026
ACCAATGC | -0.206
CGATATAA | 0.157
CCGGAAAA | -0.0524
AGAATTGG | -0.013
CCATCCGG | -0.228
CTACACAG | -0.0733
GTAGGCAC | -0.0535

Sequence | PBM E-score
AACGATTC | 0.122
ACTTTCGG | 0.0182
CAAGTCGG | -0.242
CCGGATAG | -0.045
ACCAAAAG | 0.0263
AATGCAGC | -0.179
GGGGCATA | -0.202
TCATAAGA | 0.191
TACATCCA | 0.154
CGCGGTAC | 0.0928
ACCGAGTG | -0.291
TAATTTCA | 0.222
AGGCTGCG | -0.126
CCTGGGCC | -0.299
CCAGTAAA | -0.0291
GACTCTAA | -0.0874
AGTATTCA | 0.23
TCATCCCA | -0.0536
CGACCGGA | -0.299
GTGGAAGA | 0.0579
TATTGAGA | 0.141
CCTTTAAG | -0.162
ACCGGCGG | -0.265
ACTGGCGG | -0.115
GTAAGTCA | 0.227

Sequence | PBM E-score
CGGCCGAC | -0.15
ACAGAGAA | -0.102
CTAGGTGC | -0.138
CGAAAAAG | 0.0536
ACGCCCGA | -0.237
ACTTCCCA | -0.0631
AAAATTTA | 0.177
GCATCAAC | 0.0248
CCTGTAAG | -0.134
CTCGCATA | 0.0768
ACTAGTCA | -0.0561
AAGGGTTG | 0.104
GTGCCAAA | -0.0151
CCCGATAC | -0.0866
CTACGAAC | 0.0886
CCGGCCCA | -0.348
AAGTTACC | 0.0687
AAATATCA | 0.101
ATACAGAT | 0.14
TCTGAACA | 0.117
CTATTAGA | 0.112
ATGGTCTA | -0.0629
